Six compounds from PubChem BioAssay AID328 (DTP/NCI, 2004) can be followed below.

Inconclusive results and toxic doses are left out. Some entries of the source have several records that differ or are many. Only these are listed. The source may hold further records. The values listed for one entry differ for a reason that is not stated; dose, time, organism, isomer or construct need not be as stated for each record.

This assay deals with BDF1 mice, P388 leukemia ip, median survival T/C. Description: NCI In Vivo Anticancer Drug Screen. Data for tumor model P388 Leukemia (intraperitoneal) in B6D2F1 (BDF1) mice. The conditions noted are these: endpoint: median survival time, higher = longer survival. In a few lines: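 Mice carrying the transplantable tumour receive compound or vehicle. Survival is followed in each arm, and the treated measure is divided by the vehicle measure.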

In the case of `COc1cccc2c1C(=O)c1c(O)c3c(c(O)c1C2=O)C[C@@](O)(C(C)=O)C[C@@H]3OC(=O)CCN`, under “dose: 12.5 mg/kg/injection, schedule: Q01DX009 (ip), vehicle: water”, the T/C was 100 % of control and 160 % of control.
Consider `C[n+]1ccc(Nc2ccc(NC(=O)c3ccc(N)cc3)cc2)cc1`, for which the T/C is, setting by setting: (dose: 200.0 mg/kg/injection, schedule: Q04DX003 (ip), vehicle: water) 124 % of control and 150 % of control; (dose: 400.0 mg/kg/injection, schedule: Q04DX003 (ip), vehicle: water) 87 % of control, 157 % of control, 184 % of control.
On to `COc1cccc2c1C(=O)c1c(O)c3c(c(O)c1C2=O)C[C@@](O)(/C(C)=N/NC(=O)c1ccc(Cl)c(Cl)c1)C[C@@H]3OC1CC(N)C(O)C(C)O1` (stereo partly drawn), for which the T/C (dose: 0.25 mg/kg/injection, schedule: Q01DX009 (ip), vehicle: water) was 107 % of control and 163 % of control.
Consider `COc1cccc2c1C(=O)c1c(O)c3c(c(O)c1C2=O)C[C@@](O)(/C(C)=N/NC(=O)c1ccc(N(C)C)cc1)C[C@@H]3OC1CC(N)C(O)C(C)O1` (stereo partly drawn), for which, under “dose: 0.5 mg/kg/injection, schedule: Q01DX009 (ip), vehicle: water”, the T/C was 104 % of control and 194 % of control.
In the case of `C[n+]1ccc(Nc2ccc(NC(=O)c3ccc(Nc4cc[n+](C)c5ccc([N+](=O)[O-])cc45)cc3[N+](=O)[O-])cc2)cc1`, the T/C is 124 % of control and 165 % of control (dose: 50.0 mg/kg/injection, schedule: Q04DX003 (ip), vehicle: saline); 105 % of control and 184 % of control (dose: 400.0 mg/kg/injection, schedule: Q04DX003 (ip), vehicle: saline).
Consider `CC(CN1CC(=O)NC(=O)C1)N1CC(=O)NC(=O)C1.[Cl-].[Pt+4]` (stereo not drawn), for which the T/C (dose: 400.0 mg/kg/injection, schedule: Q01DX009 (ip), vehicle: saline) is 113 % of control and 183 % of control.
